The list shows a part of the results.
These sequences were tested against T1, OsWOX13 (Oryza sativa, UniProt Q5QMM3 1-267) (assay: protein-binding microarray (RPBM); PBS, 2% BSA, 51.3 ng/ul salmon testes DNA, 50 uM zinc acetate, 200 nM TF, 25 C, 1 h; high values mean tight binding). Conditions: protein: recombinant; tags: N-terminal polyhistidine and DsRed monomer fusion (pET32a); label: CyDye5-dUTP incorporated in the synthesized complementary strand; 3' TTTTT single-stranded linker to array surface; dsDNA, one strand shown.
T1 sequence: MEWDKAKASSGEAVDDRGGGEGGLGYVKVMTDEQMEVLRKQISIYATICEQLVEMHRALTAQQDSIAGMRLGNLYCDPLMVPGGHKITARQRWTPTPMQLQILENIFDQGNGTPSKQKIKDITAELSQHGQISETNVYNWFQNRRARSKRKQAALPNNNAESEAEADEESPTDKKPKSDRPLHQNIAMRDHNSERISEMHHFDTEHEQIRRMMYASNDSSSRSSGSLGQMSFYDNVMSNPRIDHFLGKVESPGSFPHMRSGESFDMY
Method in brief: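 Transcription factors, each fused N-terminally to a polyhistidine tag and DsRed, were expressed in E. coli BL21-CodonPlus and purified on Ni–NTA. A custom Agilent array was made double-stranded by primer extension with Cy5-dUTP and blocked with 2% BSA. It was incubated with 200 nM protein in PBS, 2% BSA, salmon testes DNA and 50 µM zinc acetate at 25 °C for 1 h, then washed. The binding signal is per-feature fluorescence intensity (arbitrary units) read on an Axon 4000B scanner.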
For “GGGGTGACAAATTAATTGATTTGATCCCAAGATAATGGTGCGGAGTCACCTAGTGCAG”, the binding signal was 50700 fluorescence intensity (a.u.).
With “AGATGAGAGTAGACAATTAATTTATGTATGTTTTCTGTGGCGGAGTCACCTAGTGCAG” the binding signal was 3150 fluorescence intensity (a.u.).
“CCTAACAGTATTGATAATCAGTAGCCCTGATAATTAAGATCGGAGTCACCTAGTGCAG” was tested, and the binding signal was 15200 fluorescence intensity (a.u.).
For “TAGATTAGCTTAATTAATACCATTTTCATTAGTAGGAAAGCGGAGTCACCTAGTGCAG”, the binding signal was 25900 fluorescence intensity (a.u.).
“AATATATTGACATTGATATCTTATAAAGAGCCTATAGATACGGAGTCACCTAGTGCAG” was tested, and the binding signal was 5820 fluorescence intensity (a.u.).
In the case of “TTCAGCGTAATTTGTATGGTTCTATTAACCTGCAATTTCGCGGAGTCACCTAGTGCAG”, the binding signal is reported as 7150 fluorescence intensity (a.u.).
With “AATAGATTGTTTGCTCACGTTAACATAGCAACATCTGGAACGGAGTCACCTAGTGCAG” the binding signal was 30900 fluorescence intensity (a.u.).
For “CTATATCAAATTATTATCAATCCGTTATATATTCTCACCGCGGAGTCACCTAGTGCAG”, the binding signal was 14800 fluorescence intensity (a.u.).
In the case of “CGTTTTGATGGATGGCTCAGATCGGTTCCGAATCGATCAACGGAGTCACCTAGTGCAG”, the binding signal is reported as 5120 fluorescence intensity (a.u.).
In the case of “AACATATAACCAATCAGCATTATATTGCTTTAATCATCTCCGGAGTCACCTAGTGCAG”, the binding signal is reported as 13600 fluorescence intensity (a.u.).
In the case of “TAACTACACAGATTGCATGTAAATTACGGGACGAACCTTTCGGAGTCACCTAGTGCAG”, the binding signal is reported as 5900 fluorescence intensity (a.u.).
“TGCTGTCATCAAATTGTCTATCATTTCATTCATGCAAGGTCGGAGTCACCTAGTGCAG” was tested, and the binding signal was 4990 fluorescence intensity (a.u.).
“GTGGTTACCGAGTAATTGAGACAGAAACAGGTTAAGTTGGCGGAGTCACCTAGTGCAG” was tested, and the binding signal was 8760 fluorescence intensity (a.u.).
“ATTTAAATTGGATATATAAACTTTTGACTTATAAACTTTACGGAGTCACCTAGTGCAG” was tested, and the binding signal was 10400 fluorescence intensity (a.u.).
“TTTGCCTTTGATTAATAAAATACTGGTGCTTAGTACTACACGGAGTCACCTAGTGCAG” was tested, and the binding signal was 6480 fluorescence intensity (a.u.).
For “TTCAGAATGATTAGCCGGTCACGACCTGTTCTAATGACCCCGGAGTCACCTAGTGCAG”, the binding signal was 18300 fluorescence intensity (a.u.).
With “CTAAAATTTAATTAATCATACGACAGTGAATTTCTCATTTCGGAGTCACCTAGTGCAG” the binding signal was 20300 fluorescence intensity (a.u.).
With “ATACAATTGATTATAACTTATAACACTTATTAATGTCTTACGGAGTCACCTAGTGCAG” the binding signal was 24900 fluorescence intensity (a.u.).
“GACATGACTGGACTAACTTGGATCATATTGCTGCTAGCTACGGAGTCACCTAGTGCAG” was tested, and the binding signal was 12900 fluorescence intensity (a.u.).
“ATTGTAATTAATTAAGTACTGACAGTACTGAGCACTGACACGGAGTCACCTAGTGCAG” was tested, and the binding signal was 28400 fluorescence intensity (a.u.).
With “GTAGCATTAGATTGTGTTAATTCTGATACCATGGGGCTATCGGAGTCACCTAGTGCAG” the binding signal was 6200 fluorescence intensity (a.u.).
For “ATTAATTGCTTTTCTTTCTTTAATTTGGACCAGGCAGTGACGGAGTCACCTAGTGCAG”, the binding signal was 28600 fluorescence intensity (a.u.).
For “TAATATTTAATTTCTATCAACATCTGACTACTTAATATTGCGGAGTCACCTAGTGCAG”, the binding signal was 7790 fluorescence intensity (a.u.).
In the case of “CATGATTTCTTAAAGTGGGCCATTAATAAATACATCATCTCGGAGTCACCTAGTGCAG”, the binding signal is reported as 14300 fluorescence intensity (a.u.).
“TTTAAAATAATTAATATCTAATTAATTATGCGTTAATGGCCGGAGTCACCTAGTGCAG” was tested, and the binding signal was 48900 fluorescence intensity (a.u.).
For “TATATATATATATATATATATGTATGTATGTATATATATACGGAGTCACCTAGTGCAG”, the binding signal was 16600 fluorescence intensity (a.u.).
With “CTTATGCTAACTGAACATTAAATTAACTGGAGCTAAGCTTCGGAGTCACCTAGTGCAG” the binding signal was 9860 fluorescence intensity (a.u.).
For “TAAAGTTAATTACACACATCACATTGCCAATATATATGGTCGGAGTCACCTAGTGCAG”, the binding signal was 25500 fluorescence intensity (a.u.).
For “ATAAATTTATAGGTAAAACTTTTATATAGATGTTCTTGGTCGGAGTCACCTAGTGCAG”, the binding signal was 15300 fluorescence intensity (a.u.).
With “TATTGATTAAATACCTGATCTGATTCTGCATATGATTCAACGGAGTCACCTAGTGCAG” the binding signal was 10200 fluorescence intensity (a.u.).
In the case of “CTTAGTAATTCAGATAGTTAAATTAATTCCCAGCGTTGAGCGGAGTCACCTAGTGCAG”, the binding signal is reported as 3900 fluorescence intensity (a.u.).
In the case of “CATCAATTTGTTTCGCTATCCTCCTCGCTCCACCGATTAGCGGAGTCACCTAGTGCAG”, the binding signal is reported as 5080 fluorescence intensity (a.u.).
“TACAAATAAATTTTGTTGAAATTCAGGAATCGGTCGTGTCCGGAGTCACCTAGTGCAG” was tested, and the binding signal was 3990 fluorescence intensity (a.u.).
With “GGATTTGATTGGATAAGCCGCTCGTAAGGACACCGTGCCTCGGAGTCACCTAGTGCAG” the binding signal was 52300 fluorescence intensity (a.u.).
In the case of “TTTTCCTGATCAAGTCAATCACACAGCTATCTTGCTCTTCCGGAGTCACCTAGTGCAG”, the binding signal is reported as 9440 fluorescence intensity (a.u.).
In the case of “TGGATTAATTAGTAGCACAACTATGGATGCACAACCTTAGCGGAGTCACCTAGTGCAG”, the binding signal is reported as 16500 fluorescence intensity (a.u.).
For “CAATAGATAGCCTAAATTTAAATTTGTTTGAACCTGTGCCCGGAGTCACCTAGTGCAG”, the binding signal was 23900 fluorescence intensity (a.u.).
“ACAAATTGGGTTAATGGGCCGGATGATTCTAAATGGGCCCCGGAGTCACCTAGTGCAG” was tested, and the binding signal was 23800 fluorescence intensity (a.u.).
For “CCCTGATTAGAGCTCTTTGCAAACTGTGTTTTGTATTAGCCGGAGTCACCTAGTGCAG”, the binding signal was 41600 fluorescence intensity (a.u.).
For “TACCTTTTAATTTTCCCCATCCTTATCCTATTCCTATCTCCGGAGTCACCTAGTGCAG”, the binding signal was 3240 fluorescence intensity (a.u.).
In the case of “CGCCACTGACAGGTGGTCCCAGGGCCGTGATGGACCCACCCGGAGTCACCTAGTGCAG”, the binding signal is reported as 3500 fluorescence intensity (a.u.).
For “CCTGAGACATCCAATCATAATCATCATGTGCTAGACTGTACGGAGTCACCTAGTGCAG”, the binding signal was 16800 fluorescence intensity (a.u.).
“TCTAATTTCTTCCCTTGCAGATTGATCTTGTTAGTGAGCCCGGAGTCACCTAGTGCAG” was tested, and the binding signal was 20700 fluorescence intensity (a.u.).
With “ATTTGATCAAATCTTCCTATGTTCCTCCTGTATTCCTTTACGGAGTCACCTAGTGCAG” the binding signal was 6780 fluorescence intensity (a.u.).
In the case of “CCAAATTTGGACTCCTTCCAAATTTGACTCCACATCCCATCGGAGTCACCTAGTGCAG”, the binding signal is reported as 4030 fluorescence intensity (a.u.).
For “TTAGATCAATTGGTAAAATGATTGTTATGTGCATAGTAGCCGGAGTCACCTAGTGCAG”, the binding signal was 25900 fluorescence intensity (a.u.).
“GCCTCCTCATTATTAATATCTGTACTCCATATTCTACTACCGGAGTCACCTAGTGCAG” was tested, and the binding signal was 3540 fluorescence intensity (a.u.).
“CTGCTGCTTGATTATTTGGGTTCAACTGGCAAGAACTATGCGGAGTCACCTAGTGCAG” was tested, and the binding signal was 8890 fluorescence intensity (a.u.).
With “ACATAATTTGCTACCACGTTTGTGACCGCTAATCTTCCCTCGGAGTCACCTAGTGCAG” the binding signal was 23600 fluorescence intensity (a.u.).
With “GCCACATTGTGATTTGTTTTAAAAGAACAGATGGAATAGTCGGAGTCACCTAGTGCAG” the binding signal was 8400 fluorescence intensity (a.u.).
For “TAGGGCTGATTTGGTTTGATGCACTACCAAACCATTGGTACGGAGTCACCTAGTGCAG”, the binding signal was 5460 fluorescence intensity (a.u.).
With “GTAAATTTCATAAAATCCCACGTATTATGATTCAAATTGCCGGAGTCACCTAGTGCAG” the binding signal was 3430 fluorescence intensity (a.u.).
With “TGGTAAATTGTAAAATGATTATTGTTGCTGATCTCTAACTCGGAGTCACCTAGTGCAG” the binding signal was 35300 fluorescence intensity (a.u.).
For “GTATGATGGACCAGCAAATCTATATATCGATCATCTGCAGCGGAGTCACCTAGTGCAG”, the binding signal was 7870 fluorescence intensity (a.u.).

Source: PMC7819943, “Rice protein-binding microarrays: a tool to detect cis-acting elements near promoter regions in rice”
